# Test results reported in PubChem BioAssay AID1346428 (National Center for Advancing Translational Sciences (NCATS), 2018).
# Several values for one entry are separate records, joined by “and”; a condition that tells them apart may be missing. Equal entries are not always repeated. In all, about 48,000 compounds went through this assay and about 1,200 (2.5%) were called active. About 2% were inconclusive and are not listed.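 The calls were made as follows: active = activation of at least 60% and not above a set upper limit (about 1 call in 100 departs from these limits); inconclusive = activation of 40% to 60%, or above that upper limit; inactive = activation under 40%.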 The list shows a part of the results.
# Target: Probable G-protein coupled receptor 32 (Homo sapiens) (UniProt O75388)
# Experiment: qHTS for Agonists of Human Resolvin D1 Receptor DRV1; also: 0% is about no effect
# Conditions: CHO-K1 GPR32 beta-arrestin PathHunter luminescence, 90 min; at 76.9 µM; hits give high values; zero percent set by DMSO-only wells
# In short: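 PathHunter beta-arrestin recruitment in CHO-K1 cells stably expressing ProLink-tagged GPR32. Cells were exposed to compound for 90 min at 37 C, then chemiluminescence was read after 1 h detection at ambient temperature; DMSO served as basal control.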
# Chain of UniProt O75388 (O75388 whole entry, looked up): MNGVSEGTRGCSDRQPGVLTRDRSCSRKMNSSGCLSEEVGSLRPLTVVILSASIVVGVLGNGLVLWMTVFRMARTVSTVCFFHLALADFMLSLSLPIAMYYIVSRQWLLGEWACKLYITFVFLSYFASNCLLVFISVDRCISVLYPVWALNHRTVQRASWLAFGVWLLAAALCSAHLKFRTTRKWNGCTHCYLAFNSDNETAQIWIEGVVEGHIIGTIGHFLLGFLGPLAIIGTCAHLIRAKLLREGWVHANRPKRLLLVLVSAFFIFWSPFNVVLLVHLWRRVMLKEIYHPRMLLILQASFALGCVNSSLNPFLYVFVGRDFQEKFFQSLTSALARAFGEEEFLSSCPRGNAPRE
row,SMILES,activation
1,COc1ccc(CCNC(=O)c2ccc3c(c2)N(Cc2cccc(C)c2)C(=O)c2ccccc2S3(=O)=O)cc1OC,inactive: -11.8%
2,CCc1ccc(-n2nnc(-c3nc(-c4ccccc4)no3)c2C)cc1,inactive: -7.87%
3,COc1cc(OC)c(NC(c2nnc(-c3ccccc3)o2)c2ccc(F)cc2Cl)cc1Cl (centres undefined),inactive: -26.6%
4,COc1ccc2nc(N(Cc3cccnc3)C(=O)CCc3ccccc3)sc2c1,inactive: -25.1%
5,Cc1ccc(Nc2c3c(nc4nncn24)CCC3)cc1,inactive: -24.5%
6,COc1ccccc1Nc1c2c(nc3ccc(NC(=O)/C=C/c4cccc(OC)c4OC)cc13)CCCC2,inactive: -37.4%
7,O=C(CCCN1CC=C(n2c(=O)[nH]c3ccccc32)CC1)c1ccc(F)cc1,inactive: 47.7%
8,CCn1cc(S(=O)(=O)c2cc(C)cc(C)c2)c(=O)c2cc(F)c(N3CCOCC3)cc21,inactive: -9.98%
9,COc1ccccc1NC(=O)CSc1nnc(-c2cccc(Cl)c2)o1,inactive: 43.4%
10,CCOc1ccccc1-c1nc(-c2ccc(-c3ccccc3)nc2OCC)no1,inactive: -6.93%
11,Cc1cc(C)cc(-n2cnc3cc(C(=O)NCCc4ccccc4)ccc32)c1,inactive: -29%
12,Cc1ccc(CCNC(=O)CCc2cn(Cc3ccccc3C)c3ccccc23)cc1,inactive: -23.7%
13,COc1cc(NC(=O)Cn2c(SCc3ccc(F)cc3)nc3cccnc32)cc(OC)c1,inactive: -1.22%
14,CCN(C(=O)Cn1c(C(=O)OC)cc2oc3ccccc3c21)c1cccc(C)c1,inactive: -10.9%
15,Cc1ccc(C)c(N(C)C(=O)c2cn(C)c(=O)c3ccccc23)c1,inactive: -23.6%
16,CCOC(=O)c1c(Oc2ccc(C(=O)OC)cc2)nnc(-c2ccccc2)c1-c1ccccc1,inactive: -17%
17,O=C(CNC(=O)c1ccccc1Cl)OCc1cc(=O)n2ccsc2n1,inactive: -10.7%
18,O=C(c1cccc(Cl)c1)n1nc(-c2ccco2)nc1NCc1cccs1,inactive: 7.74%
19,COc1cc(CN(C(=O)c2cc3ccccc3oc2=O)C2CCS(=O)(=O)C2)cc(OC)c1OC (centres undefined),inactive: -4.6%
20,Cc1cccc(Cn2c(SCc3ccc(C(=O)N4CCCCCC4)cc3)nc3ccncc32)c1,inactive: -4.38%
21,Brc1csc(CN2CCc3nc(Nc4ccccc4)ncc3C2)c1,inactive: -10.7%

row,SMILES,activation
1,Cc1cccc(NC(=O)c2cc(S(=O)(=O)N3CCCCC3)c[nH]2)c1C,inactive: 3.1%
2,CCN(CC)CCNC(=O)c1cc(S(C)(=O)=O)ccc1OC,inactive: -17.9% and inactive: -6.66%
3,O=C(NCCCc1ccccc1)c1nn(-c2ccccc2F)nc1CO,inactive: -24.6%
4,COc1cccc(CNC(=O)c2c(C)nn(-c3cccc(C)c3)c2-n2cccc2)c1,inactive: -9.48%
5,O=C(NCCc1ccccc1)c1ccc(CSc2nc3cccnc3n2Cc2ccc(F)cc2)cc1,inactive: 0.451%
6,Cc1nc(-c2ccc(C)c(N3CCN(C(=O)Nc4ccccc4C(F)(F)F)CC3)c2)no1,inactive: -6%
7,CC(=O)c1ccc(NC(=O)C2CCC(CNS(=O)(=O)c3ccc(Br)s3)CC2)cc1 (centres undefined),inactive: -1.33%
8,O=C(NC(=O)c1cccc(F)c1)Nc1ccc(-c2cc(C(F)(F)F)nn2-c2ccccc2)cc1,inactive: 8.25%
9,Cc1ccc(C(=O)Nc2nnc(S(=O)(=O)N3CCOCC3)s2)cc1,inactive: 38.6%
10,COC(=O)c1ccc(NC(=O)C2(S(=O)(=O)c3ccc(C)cc3)CC2)cc1,inactive: -12.3%
11,COC(=O)c1sc(-c2ccccc2)cc1NC(=O)c1cccc(F)c1,inactive: 3.18%
12,Cc1ccc(CN2CCCn3nc(C(=O)NCCC(C)C)cc3C2=O)cc1,inactive: 0.143%
13,O=C(NCc1ccc(F)cc1)C1CCN(C(=O)c2ccc(-n3ccc4ccccc43)s2)CC1,inactive: -10.3%
14,Oc1c(I)cc(I)c2cccnc12,inactive: -44.8%
15,CC1CCN(c2nc3c(S(=O)(=O)c4ccccc4)nnn3c3ccsc23)CC1,inactive: -2.62%
16,COc1ccccc1NC(=O)CCCOc1cc(=O)n(C)c2ccccc12,inactive: 0.253%
17,CCc1ccccc1NC(=O)c1cc(S(=O)(=O)N(CC)c2ccccc2)ccc1F,inactive: -22.4%
18,COc1ccc(-c2nc(C)c(CCNC(=O)C(=O)Nc3cccc(F)c3)s2)cc1OC,inactive: 19.8%
19,COc1ccc(CCNC(=O)c2nn(-c3ccc(C)cc3)c(=O)c3c2c2ccccc2n3C)cc1OC,inactive: 14.1%
20,O=C(CC1N=C2c3ccccc3N=C(SCC(=O)Nc3cccc(C(F)(F)F)c3)N2C1=O)NCc1cccs1 (centres undefined),inactive: -19.9%
21,CCc1ccccc1NC(=O)Nc1nnc(N2CCCC2)s1,inactive: -0.636%

row,SMILES,activation
1,CCc1ccc(CN(Cc2ccco2)C(=O)c2ccccc2Cl)cc1,inactive: -22%
2,CCOC(=O)CCn1nc(-c2ccc(C)cc2)c2ccccc2c1=O,inactive: 10.6%
3,Cc1ccc(C)c(Cn2c(=O)n(Cc3ccccc3)c(=O)c3c(C)c(C)sc32)c1,inactive: -15.3%
4,Cc1ccc(C(=O)COC(=O)c2cc(-c3ccccc3)nc3ccccc23)cc1C,inactive: -9.34%
5,COc1cc(NC(=O)Cn2c(=O)n(Cc3ccccc3OC)c(=O)c3cccnc32)cc(OC)c1,inactive: -0.717%
6,Cc1ccc(C)c(N2CCN(S(=O)(=O)c3ccc4oc(=O)c5ncn(C)c5c4c3)CC2)c1,inactive: -2.93%
7,Cc1ccc(S(=O)(=O)c2nnn3c2nc(NCc2ccc(F)cc2)c2sccc23)cc1,inactive: -15.3%
8,CCCNC(=O)c1ccc2c(c1)N(Cc1cccc(C)c1)C(=O)c1ccccc1S2,inactive: -37.8%
9,COc1ccc(NC(=O)CCN2CCN(c3cccc(Cl)c3)CC2)cc1,inactive: 47%
10,Cc1ccc(Cn2c(=O)n(CCCCC(=O)NCCc3ccc(Cl)cc3)c(=O)c3ccccc32)cc1,inactive: 5.61%
11,Cn1c(=O)c2c(n3c4ccccc4nc13)NC(=O)CC2c1ccccc1F (centres undefined),inactive: 9.85%
12,CC1CCc2c(sc3nnn(Cc4ccc(F)cc4)c(=O)c23)C1 (centres undefined),inactive: -5.22%
13,O=C(NCc1ccccc1)c1cc(-c2cccc(Cl)c2)on1,inactive: 1.76%
14,Cc1cc(C)cc(OCC(=O)NCC(c2ccc(Cl)cc2)N2CCCCC2)c1 (centres undefined),inactive: -43%
15,COc1ccc(S(=O)(=O)N2CCN(c3ccc(F)cc3)CC2)cc1-c1noc(C)n1,inactive: -13.1%
16,CCc1nnc2c(Nc3ccc(Br)c(C)c3)nc3ccccc3n12,inactive: -2.67%
17,COc1ccc(OC)c(N(CC(=O)NCc2ccccc2)S(=O)(=O)c2ccccc2)c1,inactive: -8.02%
18,CCc1ccccc1NC(=O)Cn1nnc(C(=O)OC)c1C(=O)OC,inactive: 15.9%
19,CCN(CC)S(=O)(=O)c1ccc2c(c1)N(CC(=O)Nc1c(C)cccc1C)C(=O)CO2,inactive: -17.4%
20,COC(=O)c1ccc(NC(=O)CC2C(=O)N(c3ccc(Cl)cc3)C(=O)N2Cc2cccs2)cc1 (centres undefined),inactive: -24.1%
21,COc1ccc(NC(=O)CSc2ncc(-c3ccc(Cl)cc3)[nH]2)cc1OC,inactive: -9.37%

row,SMILES,activation
1,CCc1ccc(NCc2cc3cc4c(cc3n(CC(=O)Nc3ccc(Cl)cc3)c2=O)OCO4)cc1,inactive: -39.8%
2,COc1ccccc1CCNC(=O)c1ccc2c(c1)c(C)c(C)n2C,inactive: -19.8%
3,COC(=O)c1cc(NC(=O)CCc2c(C)nc3c4c(C)cc(C)nc4nn3c2C)cc(C(=O)OC)c1,inactive: -2.04%
4,Cc1cc(S(=O)(=O)Nc2cccc(C(=O)O)c2)c(C)c(S(=O)(=O)c2ccccc2)c1,inactive: -6.1%
5,CCOC(=O)c1sc(N2C(=O)c3oc4cc(C)c(C)cc4c(=O)c3C2c2cccc(O)c2)nc1C (centres undefined),inactive: 0.191%
6,CCOC(=O)c1sc2ccccc2c1S(=O)(=O)Nc1ccc(N(C)C)cc1,inactive: -12.7%
7,COc1ccccc1CNC(=O)c1c[nH]c2ccc(S(=O)(=O)Nc3cc(C)cc(C)c3)cc2c1=O,inactive: -14%
8,CCCOc1ccc(CNC(=O)CCCn2ncn3c(cc4sc(CC)cc43)c2=O)cc1,inactive: 7.2%
9,Cc1ccc(-c2cc(C(=O)Nc3ccc(SC(F)F)cc3)no2)cc1F,inactive: 9.25%
10,COc1cccc(NC(=O)CCC(=O)N2Cc3ccccc3Oc3ncccc32)c1,inactive: -15.2%
11,CCNS(=O)(=O)c1ccc(NC(=O)CSc2nc(-c3ccco3)cc(C(F)(F)F)n2)cc1,inactive: -24.7%
12,CCCOc1ccc(NC(=O)CC2C(=O)N(c3ccccc3)C(=O)N2Cc2ccco2)cc1 (centres undefined),inactive: -12.8%
13,Cc1ccc(CNC(=O)CSc2nc3ccsc3c(=O)n2Cc2ccccc2F)cc1,inactive: -8.45%
14,Cc1cccc(Nc2nnc(-c3ccc(C)c(S(=O)(=O)N4CCCCC4)c3)c3ccccc23)c1,inactive: 22%
15,Cc1ccc(-n2cc(-c3ccccc3)c3c(N4CCCCC4)ncnc32)cc1,inactive: -20.2%
16,CC(C)OC(=O)c1cccc(NC(=O)Cn2nnc3sc4c(c3c2=O)CCCC4)c1,inactive: -35.1%
17,Cc1ccc(S(=O)(=O)N2CCN(C(=O)c3cc(-c4ccc(Br)cc4)n[nH]3)CC2)c(C)c1,inactive: 9.41%
18,CCN(CC)c1ccc(NC(=O)c2cccn2-c2nnc(N3CCCCC3)s2)c(C)c1,active: 76.5%
19,N#CC(C#N)=C(N)/C(C#N)=C/c1ccc(O)cc1,inactive: -10.9%
20,Cc1c(Cl)cccc1-n1ncc(C(=O)N2CCN(c3ncccn3)CC2)c1C1CCN(C(=O)OC(C)(C)C)CC1,inactive: -12.5%
21,Cc1ccc(NC(=O)C(Cc2ccccc2)NS(=O)(=O)c2ccc3c(c2)c(=O)n(C)c(=O)n3C)c(C)c1 (centres undefined),inactive: -13.4%
